# Reference: the supplement of paper PMC8728848
# Some of the results follow.
# Key:
# Assay in all cases: glycan array binding signal (z-score within array); higher = stronger binding
# Conditions in all cases: glycan notation: IUPAC condensed, linker removed
# GlcA(b1-3)GlcNAc = target: GlcA(b1-3)GlcNAc
# Summary of the method: (§1)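 Columns mapping to the same glycan were averaged after glycan names were converted to IUPAC-condensed notation. The data come from 3228 arrays in the Consortium for Functional Glycomics database, limited to those with an available protein sequence. Binding is reported as a within-array Z-score averaged across arrays of one protein sequence and across linkers.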
# GlcA(b1-6)Gal = target: GlcA(b1-6)Gal
# Summary of the method: as §1
# [1] = target: GlcNAc(a1-3)Gal(b1-4)GlcNAc
# Summary of the method: as §1
# [2] = target: GlcNAc(a1-6)Gal(b1-4)GlcNAc
# Summary of the method: as §1
# [3] = target: GlcNAc(b1-2)Gal(b1-3)GalNAc
# Summary of the method: as §1
# [4] = target: GlcNAc(b1-2)Man(a1-3)[GlcNAc(b1-2)Man(a1-6)]Man(b1-4)GlcNAc(b1-4)GlcNAc
# Summary of the method: as §1
# GlcNAc(b1-3)Gal = target: GlcNAc(b1-3)Gal
# Summary of the method: as §1
# [5] = target: GlcNAc(b1-3)Gal(b1-3)GalNAc
# Summary of the method: as §1
# GlcNAc(b1-3)Gal(b1-4)Glc = target: GlcNAc(b1-3)Gal(b1-4)Glc
# Summary of the method: as §1
# [6] = target: GlcNAc(b1-3)Gal(b1-4)GlcNAc
# Summary of the method: as §1
# [7] = target: GlcNAc(b1-3)Gal(b1-4)GlcNAc(b1-3)Gal(b1-4)GlcNAc
# Summary of the method: as §1
# GlcNAc(b1-3)GalNAc = target: GlcNAc(b1-3)GalNAc
# Summary of the method: as §1
# GlcNAc(b1-3)Man = target: GlcNAc(b1-3)Man
# Summary of the method: as §1
# [8] = target: GlcNAc(b1-3)[GlcNAc(b1-4)][GlcNAc(b1-6)]GlcNAc
# Summary of the method: as §1
# [9] = target: GlcNAc(b1-3)[GlcNAc(b1-6)]Gal(b1-4)GlcNAc
# Summary of the method: as §1
# [10] = target: GlcNAc(b1-3)[GlcNAc(b1-6)]GalNAc
# Summary of the method: as §1
# [11] = target: GlcNAc(b1-4)Gal(b1-4)GlcNAc
# Summary of the method: as §1
# GlcNAc(b1-4)GlcNAc = target: GlcNAc(b1-4)GlcNAc
# Summary of the method: as §1
# [12] = target: GlcNAc(b1-4)GlcNAc(b1-4)GlcNAc
# Summary of the method: as §1
# [13] = target: GlcNAc(b1-4)GlcNAc(b1-4)GlcNAc(b1-4)GlcNAc(b1-4)GlcNAc
# Summary of the method: as §1
# [14] = target: GlcNAc(b1-4)GlcNAc(b1-4)GlcNAc(b1-4)GlcNAc(b1-4)GlcNAc(b1-4)GlcNAc
# Summary of the method: as §1
# [15] = target: GlcNAc(b1-4)[GlcNAc(b1-6)]GalNAc
# Summary of the method: as §1
# [16] = target: GlcNAc(b1-6)Gal(b1-4)GlcNAc
# Summary of the method: as §1
# GlcNAc(b1-6)GalNAc = target: GlcNAc(b1-6)GalNAc
# Summary of the method: as §1
# GlcNAc3Prop(b1-4)GlcNAc = target: GlcNAc3Prop(b1-4)GlcNAc
# Summary of the method: as §1
# Kdn(a2-3)Gal(b1-3)GlcNAc = target: Kdn(a2-3)Gal(b1-3)GlcNAc
# Summary of the method: as §1
# Kdn(a2-3)Gal(b1-4)GlcNAc = target: Kdn(a2-3)Gal(b1-4)GlcNAc
# Summary of the method: as §1
# [17] = target: Man(a1-2)Man(a1-2)Man(a1-3)Man
# Summary of the method: as §1
# [18] = target: Man(a1-2)Man(a1-2)Man(a1-6)[Man(a1-3)]Man
# Summary of the method: as §1
# Man(a1-2)Man(a1-3)Man = target: Man(a1-2)Man(a1-3)Man
# Summary of the method: as §1
# [19] = target: Man(a1-2)Man(a1-3)[Man(a1-2)Man(a1-6)]Man
# Summary of the method: as §1
# [20] = target: Man(a1-2)Man(a1-3)[Man(a1-2)Man(a1-6)]Man(a1-6)[Man(a1-2)Man(a1-2)Man(a1-3)]Man
# Summary of the method: as §1
# [21] = target: Man(a1-2)Man(a1-3)[Man(a1-2)Man(a1-6)]Man(a1-6)[Man(a1-2)Man(a1-2)Man(a1-3)]Man(b1-4)GlcNAc(b1-4)GlcNAc
# Summary of the method: as §1
# [22] = target: Man(a1-2)Man(a1-3)[Man(a1-6)]Man(a1-6)[Man(a1-2)Man(a1-3)]Man(b1-4)GlcNAc(b1-4)GlcNAc
# Summary of the method: as §1
# [23] = target: Man(a1-2)Man(a1-6)[Man(a1-3)]Man(a1-6)[Man(a1-2)Man(a1-2)Man(a1-3)]Man
# Summary of the method: as §1
# [24] = target: Man(a1-2)Man(a1-6)[Man(a1-3)]Man(a1-6)[Man(a1-2)Man(a1-2)Man(a1-3)]Man(b1-4)GlcNAc(b1-4)GlcNAc
# Summary of the method: as §1
# Man(a1-3)[Man(a1-6)]Man = target: Man(a1-3)[Man(a1-6)]Man
# Summary of the method: as §1
binder,measurement,setting,value
"MIC1 (Toxoplasma gondii), O00834 (protein) MGQALFLTVLLPVLFGVGPEAYGEASHSHSPASGRYIQQMLDQRCQEIAAELCQSGLRKMCVPSSRIVARNAVGITHQNTLQWRCFDTASLLESNQENNGVNCVDDCGHTIPCPGGVHRQNSNHATRHEILSKLVEEGVQRFCSPYQASANKYCNDKFPGTIARRSKGFGNNVEVAWRCYEKASLLYSVYAECASNCGTTWYCPGGRRGTSTELDKRHYTEEEGIRQAIGSVDSPCSEVEVCLPKDENPPLCLDESGQISRTGGGPPSQPPEMQQPADRSDERGGGKEQSPGGEAQPDHPTKGGNIDLPEKSTSPEKTPKTEIHGDSTKATLEEGQQLTLTFISTKLDVAVGSCHSLVANFLDGFLKFQTGSNSAFDVVEVEEPAGPAVLTIGLGHKGRLAVVLDYTRLNAALGSAAYVVEDSGCSSSEEVSFQGVGSGATLVVTTLGESPTAVSA",glycan array binding signal (z-score),GlcA(b1-3)GlcNAc,-0.176
same,glycan array binding signal (z-score),GlcA(b1-6)Gal,-0.304
same,glycan array binding signal (z-score),[1],0.163
same,glycan array binding signal (z-score),[2],-0.27
same,glycan array binding signal (z-score),[3],-0.143
same,glycan array binding signal (z-score),[4],-0.227
same,glycan array binding signal (z-score),GlcNAc(b1-3)Gal,-0.169
same,glycan array binding signal (z-score),[5],-0.315
same,glycan array binding signal (z-score),GlcNAc(b1-3)Gal(b1-4)Glc,-0.138
same,glycan array binding signal (z-score),[6],-0.195
same,glycan array binding signal (z-score),[7],-0.262
same,glycan array binding signal (z-score),GlcNAc(b1-3)GalNAc,-0.169
same,glycan array binding signal (z-score),GlcNAc(b1-3)Man,-0.15
same,glycan array binding signal (z-score),[8],-0.08
same,glycan array binding signal (z-score),[9],-0.289
same,glycan array binding signal (z-score),[10],0.019
same,glycan array binding signal (z-score),[11],-0.098
same,glycan array binding signal (z-score),GlcNAc(b1-4)GlcNAc,-0.252
same,glycan array binding signal (z-score),[12],-0.298
same,glycan array binding signal (z-score),[13],-0.267
same,glycan array binding signal (z-score),[14],-0.077
same,glycan array binding signal (z-score),[15],-0.126
same,glycan array binding signal (z-score),[16],0.12
same,glycan array binding signal (z-score),GlcNAc(b1-6)GalNAc,-0.41
same,glycan array binding signal (z-score),GlcNAc3Prop(b1-4)GlcNAc,-0.196
same,glycan array binding signal (z-score),Kdn(a2-3)Gal(b1-3)GlcNAc,-0.158
same,glycan array binding signal (z-score),Kdn(a2-3)Gal(b1-4)GlcNAc,-0.256
same,glycan array binding signal (z-score),[17],-0.194
same,glycan array binding signal (z-score),[18],-0.25
same,glycan array binding signal (z-score),Man(a1-2)Man(a1-3)Man,-0.118
same,glycan array binding signal (z-score),[19],-0.155
same,glycan array binding signal (z-score),[20],-0.307
same,glycan array binding signal (z-score),[21],-0.159
same,glycan array binding signal (z-score),[22],-0.312
same,glycan array binding signal (z-score),[23],-0.127
same,glycan array binding signal (z-score),[24],-0.186
same,glycan array binding signal (z-score),Man(a1-3)[Man(a1-6)]Man,-0.253
